The text below walks through data of ChEMBL document CHEMBL4888484, “Replenishing the malaria drug discovery pipeline: Screening and hit evaluation of the MMV Hit Generation Library 1 (HGL1) against asexual blood stage Plasmodium falciparum ,using a nano luciferase reporter read-out” (2022).

The whole screen tested about 150,000 compounds, of which about 540 (0.36%) showed an effect of 50% or more. The list shows a part of the results.

Broadly, the % Inhibition is the change of the read-out against control, counted positive when it falls.

The subject of this assay is Plasmodium falciparum. Briefly: Primary screen in NF54 nanoGlo assay, in single point, at 2uM, 72h; a lower Z score goes with more inhibition. Particulars: timepoint 72 hour. The format is functional, Erythrocyte.
As to `Cc1ccc(S(=O)(=O)N2CC[C@]3(CCOC3)C2)cc1N(C)C`, the “% Inhibition” value is recorded as -5% and the Z score worked out at 0.75.

`CC(C)Cn1ccnc1CN1C(=O)[C@@H]2CCCN2C1=O`: the “% Inhibition” value is on record as -14% and the Z score was 1.74.

For `O=C1CC(c2ccccc2)=NN1c1nc(-c2ccc(Cl)cc2)cs1`, the “% Inhibition” value is given as -10% and the Z score was 1.83.

As for `COCCN1C(=O)c2c(NC(C)=O)c3cc(OC)ccc3n2C[C@@]1(C)C(=O)NC1CCCCCCC1`, the “% Inhibition” value is listed as -8% and the Z score came to 0.78.

Regarding `Cc1cc(C)c(CNC(=O)c2cnccc2-c2noc(C)n2)c(=O)[nH]1`, the “% Inhibition” value is reported as -6% and the Z score stood at 0.88.

Take `CC(C)n1cncc1CN(C)C[C@H]1CCCCO1`: the “% Inhibition” value was -9% and the Z score is given as 1.81.

On to `COc1ccc2c(c1)CN(Cc1ccccn1)CC[C@H]1COC(=O)N21`, for which the “% Inhibition” value is -16% and the Z score stood at 2.

Consider `COc1ccccc1-c1noc(C[C@H](C)c2c(C)n[nH]c2C)n1`, for which the “% Inhibition” value is reported as -14% and the Z score is recorded as 2.04.

`CCN(CC)Cc1ccc2c(c1)CN(C(=O)C1CCOCC1)CCO2`: the “% Inhibition” value is listed as -13% and the Z score was 1.42.

Take `COC(=O)c1cc(O)cc(C(=O)N[C@H]2CN(C)C[C@@H]2OC)c1`: the “% Inhibition” value is -2% and the Z score is recorded as 0.26.

Consider `CCCc1nc(C(=O)N2CC[C@H](c3cccnc3OC)C2)co1`, for which the “% Inhibition” value is listed as -3% and the Z score is reported as 0.51.

With `COCCC(C)(C)CNC(=O)c1cccc(Cl)c1F`, the “% Inhibition” value is on record as -8% and the Z score came to 1.02.

With `COc1ccc(Cn2ncnc2CCCn2cnnn2)cc1`, the “% Inhibition” value was -4% and the Z score amounted to 0.79.

As for `COc1c(C)cnc(CN2CCC=C(CNC(C)=O)C2)c1C`, the “% Inhibition” value was found to be 8% and the Z score is -1.08.

As to `COCCn1c(-c2ccc(Cl)cc2)cn2c(-c3ccccc3)c(-c3ccccc3)nc12`, the “% Inhibition” value is on record as -2% and the Z score is listed as 0.28.

Regarding `CCCCN(C)S(=O)(=O)N(c1ccc(OC)cc1)[C@H]1CCS(=O)(=O)C1`, the “% Inhibition” value is reported as 3% and the Z score is -0.6.

`CC(C)c1csc([C@@H](C#N)C(=O)c2coc(C3CCCCC3)n2)n1`: the “% Inhibition” value is given as -2% and the Z score amounted to 0.19.

For `CC(C)CNC(=O)[C@@H]1COC2(CCCCC2)N1C(=O)c1cccc(Cl)c1`, the “% Inhibition” value is reported as -11% and the Z score is reported as 1.03.

Take `Clc1cccc(CNc2ncnc3c2nc2n3CCCCC2)c1`: the “% Inhibition” value is -1% and the Z score stood at 0.16.

With `CCN1CCN(c2ncc(-c3cc(=O)[nH]c(N4CCN(Cc5ccccc5)CC4)n3)c(C)n2)CC1`, the “% Inhibition” value came to 3% and the Z score is given as -0.36.

As to `O=C(CCCc1cn[nH]c1)N1CCCN(C(=O)c2ccccn2)CC1`, the “% Inhibition” value amounted to 2% and the Z score is -0.27.

Turning to `O=C(c1ccccc1O)N1CCN(Cc2ccccn2)[C@@H]2CS(=O)(=O)C[C@@H]21`, the “% Inhibition” value is -3% and the Z score was 0.5.

For the compound `C[C@@H](Cn1ccnc1)NC(=O)COCC(F)(F)F`, the “% Inhibition” value is reported as -23% and the Z score came to 2.36.

With `CCn1c(C(=O)NCCc2ccc(S(N)(=O)=O)cc2)c(N2CCCC2=O)c2cc(OC)ccc21`, the “% Inhibition” value was -7% and the Z score is listed as 1.06.

With `COc1cn(CC(=O)NC2CC2)c(CN2CCCCCC2)cc1=O`, the “% Inhibition” value was -4% and the Z score was 0.49.

For `Cc1ccn2c(NC(=O)c3ccc4c5c([nH]c4c3)CCCC5)nnc2n1`, the “% Inhibition” value is given as -5% and the Z score came to 0.87.

On to `CC(C)(C)c1ccn(C2(C(=O)O)CCN(C(=O)N3CCCCC3)CC2)n1`, for which the “% Inhibition” value is listed as -8% and the Z score amounted to 1.63.

On to `O=C(NCCc1ccc(-c2ccsc2)s1)C1CCC1`, for which the “% Inhibition” value was -1% and the Z score came to 0.23.

`Cc1cnc(NC(=O)CN2CCOCC2)s1`: the “% Inhibition” value is -10% and the Z score is 1.17.

Consider `Cc1ccccc1NC(=O)C1CC=CCC1C(=O)N(c1ccccc1)c1ccccc1` (stereo not drawn), for which the “% Inhibition” value was -16% and the Z score came out at 2.98.

Take `COC[C@H]1CN(C2CCC2)CC12CCN(C(=O)CCc1ccccc1)CC2`: the “% Inhibition” value was determined as 2% and the Z score is on record as -0.25.

With `CC1C(C(=O)O)CCN1C(=O)C1CCCCCCC1` (stereo not drawn), the “% Inhibition” value worked out at 1% and the Z score was -0.06.

For the compound `Fc1ccccc1-c1cc(NCCCn2cnnc2)n2nccc2n1`, the “% Inhibition” value was 10% and the Z score is listed as -1.82.

For the compound `CC(=O)Nc1ccc(-c2c(C(=O)Nc3ccc(C)cc3C)c(C)nc3sc(C(=O)NC4CCCC4)c(N)c23)cc1`, the “% Inhibition” value is 4% and the Z score is listed as -0.67.

Consider `CN1CCN(c2cnccn2)C[C@@]12CCC(=O)N(CC1CC1)CC2`, for which the “% Inhibition” value is listed as -24% and the Z score is reported as 4.18.

Regarding `Cc1oc2ncnc(N3CCC(C(=O)NCCN4CCOCC4)CC3)c2c1C`, the “% Inhibition” value is 3% and the Z score is listed as -0.29.

`Cc1oc2ncn(C)c(=O)c2c1C(=O)N1CCCCCC1`: the “% Inhibition” value is given as -2% and the Z score was found to be 0.36.

`COc1ccc([C@@H](C)NC(=O)N2CCC(c3ccco3)C2)c(OC)c1` (stereo partly drawn): the “% Inhibition” value worked out at 0% and the Z score was 0.08.

For the compound `O=C1NC2(CCOCC2)C(=O)N[C@@H]1c1ccccc1`, the “% Inhibition” value is -10% and the Z score is on record as 1.

As for `CCCN1CC2(CCN(C(=O)c3snnc3CC)CC2)C[C@H]1C(=O)O`, the “% Inhibition” value is given as 3% and the Z score is listed as -0.55.

In the case of `O=C(NCc1c[nH]nn1)c1ccsc1`, the “% Inhibition” value was -8% and the Z score is on record as 1.37.

As for `CC[C@H]1CC[C@@H](C)N(C(=O)c2cn(C)nc2-c2cnn(C)c2)C1`, the “% Inhibition” value is on record as -3% and the Z score is 0.34.

On to `CC(C)c1ncc(C(=O)N[C@H]2CC[C@@H]3CCC[C@@H]32)cn1`, for which the “% Inhibition” value came to 8% and the Z score is -1.03.

For `Cc1cc(Cn2nnc(C3CC3)n2)on1`, the “% Inhibition” value is 15% and the Z score is -1.85.

For the compound `O=C1NCCCc2cc(OCc3ncnn3CCF)ccc21`, the “% Inhibition” value is -12% and the Z score was found to be 1.58.

With `Oc1ccc2c(c1)OCCN(c1nc(C3CCCC3)ns1)C2`, the “% Inhibition” value is recorded as 4% and the Z score is listed as -0.65.

For the compound `COCC1(c2noc([C@@H]3CCOC3)n2)CCCC1`, the “% Inhibition” value is 5% and the Z score is reported as -0.64.

Regarding `C[C@@H](CS(C)(=O)=O)NCc1ccc(-c2ncon2)cc1`, the “% Inhibition” value is on record as -6% and the Z score is 0.89.

As for `O=C(c1ccncc1F)N1CCN(c2ccccn2)C(=O)C1`, the “% Inhibition” value is reported as 9% and the Z score is -1.19.

In the case of `CC1=NN(c2nc(C)cc(O)n2)C(=O)C1`, the “% Inhibition” value amounted to 37% and the Z score is given as -4.79.

With `COc1ccc(S(=O)(=O)N2CCOCC2)cc1NC(=O)Cc1c(C)nn(C)c1C`, the “% Inhibition” value is on record as -2% and the Z score is on record as 0.19.

Regarding `COc1cc2c(cc1OC)CN(C(=O)COc1ccc(-c3ccn[nH]3)cc1)CC2`, the “% Inhibition” value stood at 29% and the Z score is reported as -3.91.

`O=C(Cn1nnc2c1CCCC2)N1CCc2c(ncn2-c2ccccc2)C1`: the “% Inhibition” value was -8% and the Z score was determined as 0.84.

As for `Cc1csc(Cc2nc(-c3ccc(Br)cc3)cs2)n1`, the “% Inhibition” value turned out to be 5% and the Z score is recorded as -0.43.
